Experiments:
[1] = target: cell surface-associated GPC3 on human cancer cell lines (human, UniProt P51654 25-560); test: cell-based or functional assay
[2] = target: T1, recombinant human GPC3 (full-length extracellular domain) (human, UniProt P51654 25-559); test: ELISA as in Example 4, GPC3 coated
T1 construct: extracellular domain; Bought protein coated on ELISA plates; also called human GPC3 protein
Procedure: (§1) ELISA was performed according to standard protocols, to determine binding affinity of anti-GPC3 1A1 mAb to recombinant GPC3 from human, cynomolgus, and mouse and anti-GPC3 6A4 mAb to recombinant human GPC3. Briefly, recombinant GPC3 (AcroBiosystems) was coated on Corning EIA/RIA high-binding 96-well plates (Corning Inc.) at 50 ng per well overnight at 4° C. and blocked with 3% nonfat milk in PBS (pH7.4). Fivefold serially diluted biotinylated antibodies were added and incubated at room temperature for 2 h. The plates were washed with PBS containing 0.05% Tween 20. Bound antibodies were detected by HRP-conjugated streptavidin (Sino Biological). The assay was developed at room temperature with TMB substrate (Solarbio) and monitored at 450 nm with a microplate reader. The half-maximal binding (EC₅₀) was calculated by fitting the data to the Langmuir adsorption isotherm.
(§2) To determine binding affinity of the bispecific antibodies 1A1-based GPC3×CD3 HBiTE and 6A4-based GPC3×CD3 HBiTE to both GPC3 and CD3, ELISA was performed as described in Example 4, with the coating proteins of human, cynomolgus or mouse GPC3, or human CD3.

[3] = target: T2, recombinant cynomolgus GPC3 (cynomolgus, UniProt A0A2K5VK50 24-558); test: ELISA as in Example 4, GPC3 coated
T2 construct: Bought protein; also called cynomolgus GPC3 protein
Procedure: as §1, §2

[4] = target: T3, recombinant mouse GPC3 (mouse, UniProt Q8CFZ4 25-558, limits assumed); test: ELISA as in Example 4, GPC3 coated
T3 construct: Bought protein; also called mouse GPC3 protein
T3 sequence (Q8CFZ4 25-558 limits assumed): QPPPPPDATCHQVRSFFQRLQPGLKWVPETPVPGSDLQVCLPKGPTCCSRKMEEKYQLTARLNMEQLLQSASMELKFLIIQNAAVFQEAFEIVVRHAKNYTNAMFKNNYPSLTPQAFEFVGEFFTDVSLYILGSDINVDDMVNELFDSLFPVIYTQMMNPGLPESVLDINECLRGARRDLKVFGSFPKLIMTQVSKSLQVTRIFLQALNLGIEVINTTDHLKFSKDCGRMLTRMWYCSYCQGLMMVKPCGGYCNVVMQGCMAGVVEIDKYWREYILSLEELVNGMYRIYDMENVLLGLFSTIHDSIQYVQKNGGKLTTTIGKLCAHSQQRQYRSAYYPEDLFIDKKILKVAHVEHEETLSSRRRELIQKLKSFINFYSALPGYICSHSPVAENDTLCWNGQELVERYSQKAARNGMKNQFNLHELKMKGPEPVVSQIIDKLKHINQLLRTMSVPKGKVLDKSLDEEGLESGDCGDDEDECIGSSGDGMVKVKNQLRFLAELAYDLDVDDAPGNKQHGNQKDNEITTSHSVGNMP
Procedure: as §1, §2

[5] = target: T4, recombinant human CD3 (human); test: ELISA as in Example 4, human CD3 coated
T4 chain: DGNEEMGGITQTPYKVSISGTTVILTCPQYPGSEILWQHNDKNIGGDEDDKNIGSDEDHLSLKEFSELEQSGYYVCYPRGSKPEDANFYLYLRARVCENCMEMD
Procedure: as §1, §2

EC50 [2]: 48.6 nM
EC50 [3]: 41.2 nM
EC50 [4]: 69.8 nM
EC50 [5]: 10.8 nM
B1: 1A1-based GPC3×CD3 HBiTE (bispecific antibody)
light: EIVLTQSPLSLPVTLGQPASISCRSSQSLVYSDGNTYLNWFHQRPGQSPRRLIYKVSNRDSGVPERFSGSGSGTDFTLKISRVEAEDVGVYYCMQSTHWPLTFGGGTKVEIKGGGGSGGGGSGGGGSEIVVTQSPATLSVSPGERATLSCRSSTGAVTTSNYANWVQQKPGQAPRGLIGGANKRAPGVPARFSGSLSGDEATLTISSLQSEDFAVYYCALWYSNLWVFGQGTKLEIKRTVAAPSVFIFPPSDEQLKSGTASVVCLLNNFYPREAKVQWKVDNALQSGNSQESVTEQDSKDSTYSLSSTLTLSKADYEKHKVYACEVTHQGLSSPVTKSFNRGE[human IgG1 Fc with T366L Y407H (EU numbers) not written out]
heavy: EVQLVQSGAEVKKPGASVKVSCKASGYTFTSYGISWVRQAPGQGLEWMGWISAYNGNTNYAQKLQGRVTMTTDTSTSTAYMELRSLRSDDTAVYYCARAGTPTQILRYFDWLSQPFDYWGQGTLVTVSSGGGSSGGGGSGGGGSEVQLVESGGGLVQPGGSLRLSCAASGFTFNTYAMNWVRQAPGKGLEWVARIRSKYNNYATYYADSVKGRFTISRDDSKNTLYLQMNSLRAEDTAVYYCARHGNFGSSYVSYFAYWGQGTTVTVSSASTKGPSVFPLAPSSKSTSGGTAALGCLVKDYFPEPVTVSWNSGALTSGVHTFPAVLQSSGLYSLSSVVTVPSSSLGTQTYICNVNHKPSNTKVDKKVEPKS[human IgG1 Fc with T366L Y407H (EU numbers) not written out]
notes: Heterodimer of one light and one heavy chain; Light: anti-GPC3 VL, linker, anti-CD3 (hSP34) VL-CL, monomeric Fc mFc7.2 (T366L, Y407H); Heavy: anti-GPC3 VH, linker, anti-CD3 VH-CH1, mFc7.2; also called 1A1 HBiTE
EC50 of HepG2 killing (cell electrical impedance, PBMC effector cells, target:effector 1:5) [1]: 1.76 ng/mL
EC50 of HuH7 killing (cell electrical impedance, PBMC effector cells, target:effector 1:5) [1]: 0.491 ng/mL
EC50 of LS174T-GPC3 killing (CCK-8 assay, PBMC effector cells, target:effector 1:5) [1]: 1.25 ng/mL
EC50 of RPMI8226 killing (LDH and CCK8 assays, PBMC effector cells, target:effector 1:5) [1]: 0.589 ng/mL

— patent publication US20240368303A1 (ZHEJIANG SHIMAI PHARMACEUTICAL, published 2024)
